# Assay results published in publication PMC4336329 (PLoS ONE, 2015).
# The whole screen tested about 310,000 compounds, of which about 14,000 (4.5%) showed an effect of 50% or more. Effects have a minus sign here. Some of the results follow.
# Target: human ether-à-go-go-related gene (hERG) potassium channel (human, UniProt Q12809)
# Assay: primary screen, population patch clamp on CHO cells stably expressing hERG
# 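Note: peak tail current of the secondary pulse compared with the same well before compound.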
# Sequence of human ether-à-go-go-related gene (hERG) potassium channel (Q12809 whole entry, looked up): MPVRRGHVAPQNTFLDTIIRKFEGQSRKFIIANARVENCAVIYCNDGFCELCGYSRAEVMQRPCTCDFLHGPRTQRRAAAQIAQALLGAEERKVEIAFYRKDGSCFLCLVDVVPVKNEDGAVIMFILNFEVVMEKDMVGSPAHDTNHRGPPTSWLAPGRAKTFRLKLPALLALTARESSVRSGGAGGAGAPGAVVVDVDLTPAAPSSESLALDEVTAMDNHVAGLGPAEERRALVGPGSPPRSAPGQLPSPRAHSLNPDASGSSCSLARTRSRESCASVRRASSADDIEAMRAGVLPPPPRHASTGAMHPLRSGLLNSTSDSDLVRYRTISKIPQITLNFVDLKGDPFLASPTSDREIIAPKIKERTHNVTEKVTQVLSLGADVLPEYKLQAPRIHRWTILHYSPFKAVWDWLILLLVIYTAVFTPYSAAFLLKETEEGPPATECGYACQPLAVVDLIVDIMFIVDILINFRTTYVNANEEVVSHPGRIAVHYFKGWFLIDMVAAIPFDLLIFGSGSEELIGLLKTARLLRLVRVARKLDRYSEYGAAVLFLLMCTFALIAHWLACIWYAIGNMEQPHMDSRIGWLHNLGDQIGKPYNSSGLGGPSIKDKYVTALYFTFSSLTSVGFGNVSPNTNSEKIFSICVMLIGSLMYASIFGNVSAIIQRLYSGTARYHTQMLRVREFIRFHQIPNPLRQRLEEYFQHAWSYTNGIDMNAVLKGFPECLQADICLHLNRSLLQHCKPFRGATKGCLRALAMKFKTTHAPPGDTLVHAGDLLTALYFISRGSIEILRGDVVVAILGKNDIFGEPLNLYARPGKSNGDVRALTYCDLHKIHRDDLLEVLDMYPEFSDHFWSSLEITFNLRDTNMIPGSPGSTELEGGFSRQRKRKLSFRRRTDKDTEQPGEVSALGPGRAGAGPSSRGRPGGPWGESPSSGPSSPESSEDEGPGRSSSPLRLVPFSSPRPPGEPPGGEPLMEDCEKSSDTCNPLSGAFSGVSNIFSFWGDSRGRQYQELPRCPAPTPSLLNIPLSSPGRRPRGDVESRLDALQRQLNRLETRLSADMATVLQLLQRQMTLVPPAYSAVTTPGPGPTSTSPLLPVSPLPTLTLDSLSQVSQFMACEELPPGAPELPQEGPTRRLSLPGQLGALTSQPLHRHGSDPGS
row,Structure (SMILES),"hERG current change (%, negative = inhibition) at 10uM [%]"
1,CCSc1nc2c(cnn2-c2ccc(C)c(C)c2)c(=O)[nH]1,9.96
2,Nc1c(C(=O)N/N=C/c2ccc([N+](=O)[O-])cc2)sc2nnc(-c3ccccc3)c(-c3ccccc3)c12,12.7
3,Cc1cc(C(=O)NNS(=O)(=O)c2ccc(F)cc2)nn1C(C)(C)C,6.38
4,CCOC(=O)C(NC(=O)c1ccccc1)=C1CCCCC1,8.21
5,O=C(CCCn1cncn1)N1CCCC(N2CCN(c3ccccc3F)CC2)C1 (centres unmarked),2.83
6,O=C(c1cc(=O)c2ccccc2o1)N1CCCc2ccccc21,-10.6
7,O=C(NC1CC1)C1=C[C@@H](c2ccc3c(c2)OCO3)C[C@@H](OCCCCO)O1,1.44
8,CN1C=C(C(F)(F)F)C=C/C1=C(\C#N)c1nnc2n1CCCCC2,2.33
9,Cn1cc(S(=O)(=O)N2CCC(C(N)=O)CC2)c(=O)n(C)c1=O,-1.5
10,O=C(CNC(=O)c1cccc(OC(F)F)c1)OCc1cc(=O)n2cc(Br)ccc2n1,-55.2
11,C#C[C@]1(O)CC[C@H]2[C@@H]3[C@H](C)CC4=C(CCC(=O)C4)[C@H]3CC[C@@]21C,1.24
12,Cc1nc(NCCc2ccc(S(N)(=O)=O)cc2)c2c(C)c(C)sc2n1,4.01
13,N#C/C(=C/c1ccccc1[N+](=O)[O-])c1nnc2n1CCCCC2,3.08
14,COc1cc(NC(=O)Cc2ccccc2)ccc1NC(=O)Cc1ccccc1,20.9
15,O=C(COC(=O)Cc1ccc(Cl)cc1)NCc1ccc(F)cc1,-1.16
16,COc1ccc(C2CC(c3ccccc3)=NN2C(=O)c2ccc(Cl)c([N+](=O)[O-])c2)cc1 (centres unmarked),7.73
17,CC(=O)Nc1cc(-c2ccc(Cl)cc2)[nH]n1,4.9
18,COc1cc(/C=C(\C#N)c2nc3c(s2)CC(C)CC3)ccc1O (centres unmarked),10.1
19,CN(C)CCn1cnc2ccccc21.Cl,10.1
20,CN1C(=O)N(C)C(=O)C2(Cc3cc([N+](=O)[O-])ccc3N3CCN(C(=O)c4ccccc4)CC32)C1=O (centres unmarked),-65
21,Cc1cccc(CSc2[nH]c(=O)ncc2C)c1,16.8
22,N#Cc1ccc(-c2ccc(F)cc2)nc1Oc1ccc(Cl)c(Cl)c1,21.8

row,Structure (SMILES),"hERG current change (%, negative = inhibition) at 10uM [%]"
1,CCCCCCNS(=O)(=O)c1ccccc1Br,-19.2
2,COc1cccc(-c2csc(N3CCN(C(=S)Nc4ccccc4C)CC3)n2)c1,23.7
3,COc1ccc(N(C)S(=O)(=O)c2cccc(C(=O)NC3CCCCCC3)c2)cc1,-26
4,O=C(Nc1ccccc1C(=O)O)c1ccc(CN2C(=O)c3ccccc3C2=O)cc1,2.33
5,COc1ccc2[nH]c(=O)c(CN(CCO)S(=O)(=O)c3c(C)ccc4nsnc34)cc2c1,-3.86
6,COC(=O)[C@@H](Cc1ccccc1)NC(=O)NCCc1c[nH]c2ccccc12,23
7,CCOc1ccc(NC(=O)C2C(c3ccccc3)C2(Cl)Cl)cc1 (centres unmarked),16.9
8,NS(=O)(=O)c1ccc(NC(=O)COC(=O)c2ccc(Cl)nc2)cc1,-20
9,CC(=O)Nc1ccc(NC(=O)CCN2C(=O)c3ccccc3C2=O)cc1,7.22
10,CCC(C)c1ccc(NC(=O)COC(=O)CCNC(=O)c2ccco2)cc1 (centres unmarked),-18.6
11,CCn1cc(CN2CCC(n3nccc3NC(=O)c3ccccc3OC)CC2)cn1,-71.4
12,Cc1ccc(NC(=O)CCN2C(=O)c3ccccc3C2=O)cc1,15.4
13,Cc1ccc(C(=O)NC(=S)NCCCN2CCOCC2)cc1,-7.43
14,CCOC(=O)c1cccc(NC(=O)CCc2ccccc2)c1,-12.6
15,COc1ccc(CCNC(=O)Cn2c([N+](=O)[O-])cnc2C)cc1OC,0.11
16,Cc1nnc(NC(=O)c2cccc(F)c2)s1,4.08
17,N#CCNC(=O)c1nn2c(C(F)(F)F)cc(-c3ccccc3)nc2c1Br,17.5
18,O=C(Nc1ccccc1C(=O)N1CCCC1)C1CCN(c2ncccn2)CC1,-2.79
19,Cc1nc2c(=O)n(C)c(=O)[nH]c2n1Cc1ccccc1,-0.924
20,Cn1c(NC(=O)Cc2cccc3ccccc23)cc(=O)n(C)c1=O,8.1
21,O=C(COC(=O)c1cc(=O)[nH]c2ccccc12)Nc1ccc(Cl)cn1,6.92
22,O=C(O)C/C(=C\c1ccc(Cl)cc1)c1nc2ccccc2o1,6.78
